# Experimental data reported in the supplement of paper PMC12462457.
# Several values for one entry are separate records, joined by “and”; a condition that tells them apart may be missing. Equal entries are not always repeated. Structures can show the parent of a compound that is named as a salt. ± gives the standard deviation of the averaged measurements. The list shows a part of the results.
# System: OVCAR8
# Test: cell count relative to DMSO vehicle (fold change); OVCAR8 is a high-grade serous ovarian cancer line and CX-5461 an RNA polymerase I inhibitor; higher = more surviving senescent cells (less killing)
# Details: senescence inducer: CX-5461 3 µM 48 h, then 6 d recovery (CX senescent), exposure time 24 h
Compound,cell count (compound dose 1 µM),cell count (compound dose 5 µM)
CN(C)CC[C@H](CSc1ccccc1)Nc1ccc(S(=O)(=O)NC(=O)c2ccc(N3CCN(Cc4ccccc4-c4ccc(Cl)cc4)CC3)cc2)cc1[N+](=O)[O-],1.09 ± 0.1,0.92 ± 0.044
O=[N+]([O-])c1ccc2c(c1)S(=O)(=O)C=C2 [Stattic],1.13 ± 0.14,1.16 ± 0.11
CNC(=O)c1ccc(-c2cnc3ncc(Cc4ccc5ncccc5c4)n3n2)cc1F [Capmatinib],1.04 ± 0.23,0.98 ± 0.27
CCOC(=O)[C@H](CCc1ccccc1)N[C@@H](C)C(=O)N1[C@H](C(=O)O)C[C@@H]2CCC[C@@H]21 [Ramipril],1.18 ± 0.013,1.16 ± 0.15
O=C(COc1ccc(Cl)cc1)NC1CCC(NC(=O)COc2ccc(Cl)cc2)CC1 (stereo not drawn) [ISRIB (trans-isomer)],0.907 ± 0.1,1.04 ± 0.23
O=c1c(O)c(-c2ccc(O)c(O)c2)oc2cc(O)ccc12,1.16 ± 0.17,1.22 ± 0.21
O=C1C2C3C=CC(C4CC34)C2C(=O)N1c1ccc(Cc2ccncc2)cc1 (configuration not stated),1.04 ± 0.042,1.02 ± 0.18
COc1cc2c(cc1OC(C)C)[C@H](c1ccc(Cl)cc1)N(c1ccc(N(C)C[C@H]3CC[C@H](N4CCN(C)C(=O)C4)CC3)cc1)C(=O)C2,0.95 ± 0.26,0.801 ± 0.066
Cc1cc(C2CCCCC2)n(O)c(=O)c1,1.06 ± 0.18,1.2 ± 0.083
CCc1cc2c(=O)c(-c3nc4ccccc4s3)coc2c(CN2CCCCC2)c1O,1.25 ± 0.22,1.13 ± 0.21
C[C@H]1[C@H](C)CC[C@]2(C(=O)O)CC[C@]3(C)C(=CC[C@@H]4[C@@]5(C)CCC(=O)C(C)(C)[C@@H]5CC[C@]43C)[C@H]12 [Ursonic acid],1.13 ± 0.41,0.903 ± 0.22
CCn1c(=O)c(-c2cc(NC(=O)Nc3ccccc3)c(F)cc2Br)cc2cnc(NC)cc21 [Ripretinib],0.957 ± 0.085,0.705 ± 0.029
CCOc1cc([C@@H](CS(C)(=O)=O)N2C(=O)c3cccc(NC(C)=O)c3C2=O)ccc1OC [Apremilast],0.927 ± 0.25,0.944 ± 0.15
Cc1nc(N2CCN(C)CC2)nc2c1Nc1ccccc1S2,1.12 ± 0.24,1.08 ± 0.15
COc1cc(/C=C/C(=O)N2CCC=CC2=O)cc(OC)c1OC,1.02 ± 0.072,0.909 ± 0.14
FC(F)(F)c1ccc(CNc2ccc(Cc3c[nH]c4ncc(Cl)cc34)cn2)cn1 [Pexidartinib],1.13 ± 0.17,1.25 ± 0.14
OCCNC1CCCc2c1[nH]c1ccc(-c3ccccc3)cc21 (configuration not stated),1.057 ± 0.0042,0.987 ± 0.032
O=C(CCCCCCC(=O)NO)NO [Suberoyl bis-hydroxamic acid],1.22 ± 0.21,1.25 ± 0.2
CC(C)[C@H](CO)Nc1nc(Nc2cccc(Cl)c2)c2ncn(C(C)C)c2n1 [Purvalanol A],1.06 ± 0.32,0.907 ± 0.24
COc1ccc(N(C)c2nc(C)nc3ccccc23)cc1 [Verubulin],0.889 ± 0.26,0.937 ± 0.22
COc1ccc([C@H]2CNC(=O)C2)cc1OC1CCCC1 [(S)-(+)-Rolipram],1.03 ± 0.22,1.08 ± 0.3
O=C1CC[C@H](NC(=O)Cc2ccccc2)C(=O)N1 [Antineoplaston A10],1.27 ± 0.13,1.41 ± 0.24
O=C1NCCSc2c1sc1ccc(O)cc21,1.13 ± 0.23,0.801 ± 0.09
COc1ccccc1-c1cc(Nc2cccc(CS(N)(=O)=O)c2)ncn1,0.981 ± 0.084,0.921 ± 0.096

Compound,cell count (compound dose 1 µM),cell count (compound dose 5 µM)
Cc1cc(C)cc(NC(N)=Nc2ccccc2C(F)(F)F)c1,1.1 ± 0.16,1.04 ± 0.047
CC[C@H](CC[C@@H](C)[C@H]1CC[C@H]2[C@@H]3CC=C4C[C@@H](O)CC[C@]4(C)[C@H]3CC[C@]12C)C(C)C [beta-SITOSTEROL],1.25 ± 0.096,1.14 ± 0.2
COc1ccc(CCNCc2ccc(OCc3ccc(Cl)nc3)c(OC)c2)cc1OC [SBE13 (Hydrochloride)],0.954 ± 0.2,0.84 ± 0.13
CC(C)(C)c1cc(C(c2cc3c(cc2O)OCO3)N2CCOCC2)cc(C(C)(C)C)c1O (configuration not stated),0.963 ± 0.12,0.353 ± 0.057
O=c1ccc2ccc(O)c(O)c2o1 [Daphnetin],0.917 ± 0.09,0.965 ± 0.11
O=C(Nc1cccnc1)c1cccs1,1.03 ± 0.13,1.13 ± 0.14
c1ccc2nc3ccccc3nc2c1 [Phenazine (methylsulfate)],0.991 ± 0.063,0.622 ± 0.83
CS(=O)(=O)CCNCc1ccc(-c2ccc3ncnc(Nc4ccc(OCc5cccc(F)c5)c(Cl)c4)c3c2)o1,0.753 ± 0.11,0.44 ± 0.21
CS(=O)(=O)CCNCc1ccc(-c2ccc3ncnc(Nc4ccc(OCc5cccc(F)c5)c(Cl)c4)c3c2)o1 [Lapatinib],1.1 ± 0.095,1.2 ± 0.071
Cn1cc(CC(N)C(=O)O)c2ccccc21 (racemic) [(Rac)-Indoximod],1.18 ± 0.25,1.12 ± 0.18
CCC[C@H](Nc1nc(-c2ccc(NC(=O)NCC)c(OC)c2)ncc1C)c1cccnc1 [Lexibulin],1.17 ± 0.016,1.12 ± 0.018
COc1cc2ncc(-c3ccccc3)nc2cc1OC [Tyrphostin AG 1296],1.29 ± 0.16,1.22 ± 0.15
O=c1cc(N2CCNCC2)oc2c(-c3ccccc3)cccc12,1.15 ± 0.25,0.961 ± 0.2
Cn1cc(-n2cnc3c(NCc4nc5cc(Cl)c(Cl)cc5[nH]4)nc(N4CCOCC4)nc32)cn1,0.607 ± 0.024,0.634 ± 0.059
COc1cc(Nc2ncc(F)c(Nc3ccc4c(n3)NC(=O)C(C)(C)O4)n2)cc(OC)c1OC,0.728 ± 0.11,0.295 ± 0.0092
COc1cc(Nc2ncc(F)c(Nc3ccc4c(n3)NC(=O)C(C)(C)O4)n2)cc(OC)c1OC [R406 (free base)],1.06 ± 0.075,0.911 ± 0.15
Cc1ccc(NC(=O)c2ccc(CN3CC[C@H](N(C)C)C3)c(C(F)(F)F)c2)cc1Nc1nccc(-c2cncnc2)n1 [Bafetinib],1.01 ± 0.036,1.1 ± 0.1
CCCCCCCCCCC[C@@H](C[C@@H]1OC(=O)[C@H]1CCCCCC)OC(=O)[C@H](CC(C)C)NC=O [Orlistat],0.969 ± 0.13,0.881 ± 0.026
CC1(C)CCC(CN2CCN(c3ccc(C(=O)NS(=O)(=O)c4ccc(NCC5CCOCC5)c([N+](=O)[O-])c4)c(Oc4cnc5[nH]ccc5c4)c3)CC2)=C(c2ccc(Cl)cc2)C1 [Venetoclax],0.809 ± 0.061,0.752 ± 0.23
CS(=O)(=O)c1cccc(CNc2nc(Nc3ccc4c(c3)CCC(=O)N4)ncc2C(F)(F)F)c1,1.34 ± 0.21,1.32 ± 0.28
O=C1NC(=O)C(Cc2c[nH]c3c(Cl)cccc23)N1 (configuration not stated) [Necroptosis-IN-1],1.15 ± 0.28,1.12 ± 0.17
O=c1c2ccccc2oc2ccccc12,1.2 ± 0.076,1.02 ± 0.12
CC(C)(C)C[C@@H]1N[C@@H](C(=O)N[C@H]2CC[C@H](O)CC2)[C@H](c2cccc(Cl)c2F)[C@]12C(=O)Nc1cc(Cl)ccc12,1.02 and 0.893,1.1 and 1.02
CC1(C)CC[C@]2(C(=O)n3cnc(-c4ccccn4)c3)CC[C@]3(C)[C@H](C(=O)C=C4[C@@]5(C)C=C(C#N)C(=O)C(C)(C)[C@@H]5CC[C@]43C)[C@@H]2C1,0.794 ± 0.083,0.01 ± 0.0014

Compound,cell count (compound dose 1 µM),cell count (compound dose 5 µM)
CC(C)=CC(=O)O[C@H]1Cc2cc3ccc(=O)oc3cc2OC1(C)C [Decursin],1.16 ± 0.16,1.06 ± 0.047
CCNC(=O)CC[C@H](N)C(=O)O,1.11 ± 0.046,1.11 ± 0.043
Nc1ncn([C@H]2C[C@H](O)[C@@H](CO)O2)c(=O)n1 [Decitabine],1.07 ± 0.098,0.968 ± 0.028
O=c1cc(-c2ccc(O)c(O)c2)oc2cc(O)cc(O)c12 [Luteolin],0.886 ± 0.1,0.992 ± 0.22
O=C(NOCCO)c1ccc2cncn2c1Nc1ccc(I)cc1F,1.17 ± 0.027,1.09 ± 0.057
CC(=O)Nc1ccc(NC(=S)NC(=O)c2ccc(C(C)(C)C)cc2)cc1 [Tenovin-1],1.08 ± 0.26,1.07 ± 0.058
O=C1C=C2CC3(O)COc4c(ccc(O)c4O)C3=C2C=C1O (configuration not stated) [Hematein],1.16 ± 0.15,1.11 ± 0.13
CC(C)N(CCCNC(=O)Nc1ccc(C(C)(C)C)cc1)C[C@H]1O[C@@H](n2ccc3c(N)ncnc32)[C@H](O)[C@@H]1O,1.02 ± 0.021,1.02 ± 0.035
Cc1cc(Nc2ccc(NC(=O)c3ccc(Nc4ccnc5ccccc45)cc3)cc2)nc(N)n1,1.05 ± 0.19,0.268 ± 0.18
CN1CCN(c2ccc(-c3ccncc3-c3cc(F)c(O)c(F)c3)cc2)CC1,1.2 ± 0.14,1.19 ± 0.088
NC(=O)[C@H](CCCN=C(N)CCl)NC(=O)c1ccccc1 [Cl-amidine (hydrochloride)],1.02 ± 0.19,1.011 ± 0.0099
C[C@H](Oc1cc(-c2cnn(C3CCNCC3)c2)cnc1N)c1c(Cl)ccc(F)c1Cl [(S)-Crizotinib],0.311 ± 0.1,0.127 ± 0.0071
COc1cc(/C=C/c2ccc(O)c(O)c2)cc(OC)c1 [3'-Hydroxypterostilbene],1.21 ± 0.14,1.49 ± 0.15
O=C1CC[C@H](N2Cc3c(OCc4ccc(CN5CCOCC5)cc4)cccc3C2=O)C(=O)N1 [Iberdomide],1.28 ± 0.28,1.32 ± 0.34
CC1(C)CC[C@]2(C(=O)O)[C@H](O)C[C@]3(C)C(=CC[C@@H]4[C@@]5(C)CC[C@H](O)C(C)(C)[C@@H]5CC[C@]43C)[C@H]2C1 [Echinocystic acid],1.103 ± 0.0035,1.19 ± 0.12
CN(CCOc1ccc(CC2SC(=O)NC2=O)cc1)c1ccccn1 (configuration not stated),1.07 ± 0.21,1.07 ± 0.16
O=C(O)CC1CC(c2ccccc2)=NO1 (configuration not stated),1.18 ± 0.038,1.13 ± 0.081
COC[C@H](NC(=O)c1cnc(C)s1)C(=O)N[C@@H](COC)C(=O)N[C@@H](Cc1ccccc1)C(=O)[C@@]1(C)CO1 [Oprozomib],1.31 ± 0.38,0.571 ± 0.057
CC(CCC(=O)NCCS(=O)(=O)O)C1CCC2C3C(O)CC4CC(O)CCC4(C)C3CCC12C (configuration not stated) [Taurochenodeoxycholic acid (sodium salt)],1.16 ± 0.27,1.15 ± 0.34
COc1ccc(CC[C@@H](OC(=O)[C@@H]2CCCCN2C(=O)[C@H](c2cc(OC)c(OC)c(OC)c2)C2CCCCC2)c2cccc(OCCN3CCOCC3)c2)cc1OC,1.15 ± 0.19,1.11 ± 0.23
S=C(N/N=C1/CCCc2cccnc21)N1CCN(c2ccccn2)CC1,0.899 ± 0.1,0.968 ± 0.11
COc1ccc(-c2cc(C(F)F)nn2-c2ccc(S(N)(=O)=O)cc2)cc1F,1.17 ± 0.052,1.05 ± 0.12
O=C(Nc1ccc(Cl)c(Cl)c1)Nc1ccc2nnsc2c1,0.625 ± 0.069,0.482 ± 0.018
